Experimental data published in PubChem BioAssay AID1468 (National Center for Advancing Translational Sciences (NCATS), 2008).
Among all 280,000 compounds or so, about 1,100 (0.39%) were called active. The inconclusive results got no clear call from the source; some entries with a clear call stand among them for comparison. Calls come from the whole dose curve; as a rule, active = well fitted inhibition curve with a large enough effect; inconclusive = small, poorly fitted or top-dose-only effect, or effect the other way; inactive = flat fitted curve, though single readings scatter. Potencies of inconclusive entries are left out as doubtful fits.

Biological target: Microtubule-associated protein tau (Homo sapiens) (UniProt P10636)
Assay: qHTS for Inhibitors of Tau Fibril Formation, Fluorescence Polarization; note: nearly all actives have a fitted effect of over 55% in size
Details: K18 P301L tau heparin fibrillization, Alexa594 FP, 6 h; series mostly up to 57.7 µM
Outline: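 Heparin (20 uM) drove fibril formation of recombinant tau K18 P301L, 15 uM unlabeled with 0.24 uM Alexa 594 label, for 6 hr at 37 C in 100 mM sodium acetate pH 7. Fluorescence polarization (555/632 nm) read 1 hr after 30 uM ThT.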
% is set by controls: 0 for no effect and ±100 for the full control effect; potency is the fitted concentration of half-maximal effect; tags give direction and shape of the fitted curve.

Chain of UniProt P10636 (P10636 whole entry, looked up): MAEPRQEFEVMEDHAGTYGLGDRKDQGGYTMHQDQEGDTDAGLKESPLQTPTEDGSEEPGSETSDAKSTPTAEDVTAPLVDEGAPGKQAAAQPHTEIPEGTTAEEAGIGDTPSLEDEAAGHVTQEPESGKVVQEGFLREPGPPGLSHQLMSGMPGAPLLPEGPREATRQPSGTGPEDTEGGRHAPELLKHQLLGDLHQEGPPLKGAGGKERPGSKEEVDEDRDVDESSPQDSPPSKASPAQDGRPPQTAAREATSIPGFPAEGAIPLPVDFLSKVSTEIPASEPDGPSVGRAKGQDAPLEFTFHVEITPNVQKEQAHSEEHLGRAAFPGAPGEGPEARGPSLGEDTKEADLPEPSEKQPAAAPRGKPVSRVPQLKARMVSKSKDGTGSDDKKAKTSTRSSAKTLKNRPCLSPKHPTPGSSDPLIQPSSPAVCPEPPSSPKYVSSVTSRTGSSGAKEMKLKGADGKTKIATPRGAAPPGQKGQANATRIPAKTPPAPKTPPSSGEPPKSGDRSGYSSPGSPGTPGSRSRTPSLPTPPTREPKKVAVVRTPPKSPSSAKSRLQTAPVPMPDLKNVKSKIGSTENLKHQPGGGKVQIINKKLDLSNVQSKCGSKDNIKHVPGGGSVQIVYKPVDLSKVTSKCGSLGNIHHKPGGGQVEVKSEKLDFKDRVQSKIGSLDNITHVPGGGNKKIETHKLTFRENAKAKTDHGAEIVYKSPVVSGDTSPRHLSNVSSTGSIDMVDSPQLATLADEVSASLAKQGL

`O=C(Nc1ccccc1)c1ccc(Cl)c(S(=O)(=O)Nc2ccccc2)c1` was tested. Which Potency did it give?
The Potency was inconclusive [inhibitor, partial curve].

How did the Potency turn out when `CCOc1ccccc1CNC(=O)CN1C(=O)c2cccnc2Oc2ccc(Cl)cc21` was run?
The Potency was “inactive”.

Which Potency does the source give for `COc1ccc(C(=O)CSC#N)cc1OC` here?
Its Potency is inconclusive [inhibitor, partial curve].

`Cc1ccc(N(CC(=O)Nc2ccc(F)c(Cl)c2)S(=O)(=O)c2c(C)noc2C)cc1` was tested. Which Potency did it give?
The Potency was inconclusive [inhibitor, partial curve].

How did the Potency turn out when `O=C1C=C(NNC(=O)c2ccccc2Br)CCC1` was run?
The Potency was “inactive”.

Which Potency does the source give for `Cc1nn(CC(O)CN2c3ccccc3Sc3ccccc32)c(C)c1Br` (stereo not given) here?
Its Potency is inconclusive [activator, partial curve].

How did the Potency turn out when `Cn1c(=O)c(=O)n(C)c2cc(N3CCCC3)c(NC(=O)c3ccccc3Cl)cc21` was run?
The Potency was “inactive”.

With `C=CCN1C(=O)CS/C1=N/c1nccs1` as the compound, how does the Potency read?
Its Potency is inconclusive [inhibitor, partial curve, poor fit].

With `CCNC(=O)c1ccccc1-c1nc(-c2ccccc2)no1` as the compound, how does the Potency read?
The Potency was “inactive”.

`Oc1ccccc1-c1cc(-c2ccc3c(c2)OCCO3)n[nH]1` was tested. Which Potency did it give?
The Potency was inconclusive [inhibitor, single point].

Which Potency does the source give for `CC1(C(=O)OCC(=O)Nc2ccc3ccccc3c2)CC1(Cl)Cl` (stereo not given) here?
Its Potency is inconclusive [inhibitor, single point].

Which Potency does the source give for `CC(C)NC(=O)NC(=O)COc1cccc2c1OC(C)(C)C2` here?
Its Potency is inconclusive [inhibitor, partial curve].

`CCOc1ccc(C2C(C(C)=O)=C(O)C(=O)N2CCc2c[nH]c3ccccc23)cc1` (stereo not given) was tested. Which Potency did it give?
Its Potency is inconclusive [inhibitor, single point].

With `COc1ccccc1/C=N/Nc1nncc2ccccc12` as the compound, how does the Potency read?
The Potency was “inactive”.

`COc1ccc2c(c1)-c1nc(N)sc1CC2` was tested. Which Potency did it give?
Its Potency is inconclusive [inhibitor, single point].

Which Potency does the source give for `CCN(CC)c1ccc2nc3c(=O)n(C)c(=O)n(C)c3nc2c1` here?
Its Potency is inconclusive [inhibitor, partial curve].

With `Cc1nn(CC(=O)N2CCN(c3ccccc3F)CC2)c(=O)c2cccn12` as the compound, how does the Potency read?
Its Potency is inconclusive [inhibitor, partial curve].

How did the Potency turn out when `O=[N+]([O-])c1cc(C(F)(F)F)cc([N+](=O)[O-])c1N1CCCNCC1` was run?
The Potency was “inactive”.

With `O=C(Cn1ncc(Cl)c(Cl)c1=O)N1CCN(Cc2ccccc2)CC1` as the compound, how does the Potency read?
Its Potency is inconclusive [inhibitor, full curve].

`Cc1cccc(C)c1-n1c(C)cc(/C=N\Nc2ccc([N+](=O)[O-])cn2)c1C` was tested. Which Potency did it give?
Its Potency is inconclusive [activator, full curve].

With `O=C(CSc1oc(-c2ccc(F)cc2)nc1S(=O)(=O)c1ccccc1)c1ccc(Cl)cc1` as the compound, how does the Potency read?
The Potency was inconclusive [inhibitor, partial curve].

`N=C(N)SCCc1ccc(CCSC(=N)N)cc1` was tested. Which Potency did it give?
Its Potency is “inactive”.

With `CC(C)(C)C1=CC=C(C(C)(C)C)C(=O)C1=O` as the compound, how does the Potency read?
Its Potency is active: 17.8 µM.

How did the Potency turn out when `COc1ccc(CN(CCN(C)C)c2ncccn2)cc1` was run?
Its Potency is inconclusive [inhibitor, full curve, poor fit].

`COc1ccc(NC(=O)CN2C(=O)C(c3ccccc3)=NC23CCC(C)CC3)cc1Cl` (stereo not given) was tested. Which Potency did it give?
Its Potency is inconclusive [inhibitor, partial curve].

With `CN(C)S(=O)(=O)N(CC(=O)NCCSCc1ccc(Cl)cc1Cl)c1ccccc1` as the compound, how does the Potency read?
The Potency was inconclusive [activator, single point].

With `COc1cc(C(=O)Nc2ccc(Oc3ncnc4sc(-c5ccccc5)cc34)cc2)cc(OC)c1OC` as the compound, how does the Potency read?
Its Potency is inconclusive [inhibitor, partial curve].

`CSc1ccc(CCNC(=O)C2CCCN(S(=O)(=O)N(C)c3ccc(F)cc3)C2)cc1` (stereo not given) was tested. Which Potency did it give?
Its Potency is “inactive”.

Which Potency does the source give for `CCOC(=O)c1c(NC(=O)CSc2nnc(-c3ccco3)o2)sc(C)c1C` here?
The Potency was “inactive”.

With `O=C1C(Nc2cccc(O)c2)=C(N2CCCCC2)C(=O)c2ccccc21` as the compound, how does the Potency read?
The Potency was inconclusive [inhibitor, partial curve].

`Cc1cccn2c(=O)cc(COc3cccc(NC(=O)Nc4cccc(Cl)c4)c3)nc12` was tested. Which Potency did it give?
The Potency was inconclusive [inhibitor, partial curve].

`CC(C)c1ccc(NC(=O)c2cc(S(=O)(=O)NCCc3ccccc3)ccc2F)cc1` was tested. Which Potency did it give?
The Potency was inconclusive [inhibitor, partial curve, poor fit].

For `COc1ccccc1-n1c(SCC(=O)O)nnc1-c1ccc(S(=O)(=O)N2CCCCC2)cc1`, which Potency is on record?
Its Potency is “inactive”.

Which Potency does the source give for `COc1cc(C2CC(=O)N3CN(c4ccccc4C)CSC3=C2C#N)cc(OC)c1OC` (stereo not given) here?
Its Potency is inconclusive [inhibitor, partial curve].

Which Potency does the source give for `C=CCc1cccc(/C=N/NC(=O)CNc2ccccc2OC)c1O` here?
Its Potency is inconclusive [activator, full curve, poor fit].

How did the Potency turn out when `Cc1ccc(-n2nc(C(=O)N(C)c3ccccc3Cl)c3c4ccccc4n(C)c3c2=O)cc1` was run?
Its Potency is inconclusive [inhibitor, partial curve].

How did the Potency turn out when `Cn1c(=O)c2ncn(CC(=O)Nc3nc(-c4ccc(Cl)cc4)cs3)c2n(C)c1=O` was run?
Its Potency is inconclusive [inhibitor, single point].

Which Potency does the source give for `CCc1ccccc1NC(=O)Cn1nc(C)c2nn(-c3ccc(Cl)cc3)c(C)c2c1=O` here?
The Potency was “inactive”.

How did the Potency turn out when `CC(C)Cc1nc(S(=O)(=O)c2ccc(Cl)cc2)c(N2CCOCC2)o1` was run?
Its Potency is inconclusive [inhibitor, single point].

`COC(=O)c1c(NC(C)=O)csc1C` was tested. Which Potency did it give?
The Potency was inconclusive [inhibitor, single point].

For `CN(CC(=O)Nc1ccc(Cl)c(Cl)c1)C(=O)/C=C/c1ccc(F)cc1`, which Potency is on record?
The Potency was inconclusive [inhibitor, single point].

How did the Potency turn out when `COc1ccc(-c2nnc3sc(-c4ccccc4OC)nn23)cc1` was run?
The Potency was inconclusive [inhibitor, single point].

`CC(C)C(c1nnnn1Cc1ccc(F)cc1)N1CCN(c2ccc(O)cc2)CC1` (stereo not given) was tested. Which Potency did it give?
The Potency was “inactive”.

For `COc1ccc(N(CC(=O)Nc2cc(Cl)ccc2OC)S(=O)(=O)c2c(C)noc2C)cc1`, which Potency is on record?
Its Potency is inconclusive [inhibitor, full curve].

With `C=CCNC(=S)N/N=C/c1ccc(C)c([N+](=O)[O-])c1` as the compound, how does the Potency read?
The Potency was “inactive”.

With `COc1ccccc1N1CCN(/N=C/C=C\c2ccccc2[N+](=O)[O-])CC1` as the compound, how does the Potency read?
The Potency was inconclusive [activator, partial curve].

With `COC(=O)C1=C(C)OC(N)=C(C#N)C1c1cc(C)sc1C` (stereo not given) as the compound, how does the Potency read?
The Potency was inconclusive [inhibitor, partial curve].

Which Potency does the source give for `O=C(Nc1ccc2oc(-c3cccc4c(Br)cccc34)nc2c1)c1cccc(Cl)c1` here?
The Potency was inconclusive [inhibitor, partial curve, poor fit].

For `COCCCn1c(Cc2csc(Nc3cccc(Cl)c3)n2)nnc1SCC(=O)OC1CCCCC1`, which Potency is on record?
The Potency was inconclusive [activator, partial curve, poor fit].

`CCOc1c(OC(C)=O)ccc(/C=C2\N=C(SCC)SC2=O)c1[N+](=O)[O-]` was tested. Which Potency did it give?
The Potency was inconclusive [inhibitor, single point].

How did the Potency turn out when `COc1ccc(-c2oc3ncn4nc(COc5ccc(Cl)cc5)nc4c3c2-c2ccc(OC)cc2)cc1` was run?
The Potency was inconclusive [inhibitor, partial curve, poor fit].

With `Cc1cc(C)c(NC(=O)C(C)n2nc(C)c3sc4ccccc4c3c2=O)c(C)c1` (stereo not given) as the compound, how does the Potency read?
The Potency was “inactive”.

Which Potency does the source give for `Cc1cc(C(=O)OCC(=O)Nc2ccc(S(=O)(=O)N3CCOCC3)cc2)c(C)o1` here?
Its Potency is inconclusive [inhibitor, full curve, poor fit].

Which Potency does the source give for `CCCN1C(=O)/C(=C/c2ccc(C)o2)NC1=S` here?
Its Potency is inconclusive [inhibitor, single point].

With `CC1=C(C(=O)O)N2C(=O)[C@@H](NC(=O)C(N)C3=CCC=CC3)[C@H]2SC1` (stereo not given in full) as the compound, how does the Potency read?
The Potency was inconclusive [inhibitor, partial curve].

How did the Potency turn out when `N#Cc1c(Nc2ccccc2)sc(C(=O)c2ccccc2)c1N` was run?
The Potency was inconclusive [inhibitor, single point].

Which Potency does the source give for `Cc1ccc(-c2noc(-c3ccccc3OCC(=O)Nc3ccccc3[N+](=O)[O-])n2)cc1` here?
The Potency was inconclusive [activator, partial curve].

`COC(=O)NC(c1ccc2ccccc2c1)C(C(C)=O)C(=O)OC` (stereo not given) was tested. Which activity, negative = inhibition did it give?
Its activity, negative = inhibition is inactive: 10.1% [at 11.6 µM].

Which Potency does the source give for `CN(C)CCOC(=O)C12CC3CC(C1)CC(C(=O)OCCN(C)C)(C3)C2` here?
The Potency was “inactive”.

How did the Potency turn out when `COCCNC(=S)N/N=C/c1c(C)[nH]c2ccccc12` was run?
The Potency was inconclusive [activator, full curve, poor fit].

`CCN(CCCNC(=O)CCc1nc(-c2ccc(C)cc2)no1)c1cccc(C)c1` was tested. Which Potency did it give?
Its Potency is inconclusive [activator, partial curve, poor fit].

For `CC12CCC(C/C1=N\N=C1\NC(=O)/C(=C\c3cccc(Br)c3)S1)C2(C)C` (stereo not given), which Potency is on record?
The Potency was inconclusive [inhibitor, partial curve].

For `COC(=O)c1cc2sccc2n1Cc1c(C)cc(C)cc1C`, which Potency is on record?
The Potency was inconclusive [inhibitor, single point].

How did the Potency turn out when `COc1ccc(NC(=O)C2CCCN(S(=O)(=O)c3ccc4[nH]c(=O)ccc4c3)C2)cc1Cl` (stereo not given) was run?
Its Potency is inconclusive [inhibitor, single point].

With `COc1cccc(N/C(SCc2cccc([N+](=O)[O-])c2)=C(/C#N)C(N)=O)c1` as the compound, how does the Potency read?
Its Potency is inconclusive [inhibitor, partial curve, poor fit].
